Measured values as given in ChEMBL document CHEMBL4888484, “Replenishing the malaria drug discovery pipeline: Screening and hit evaluation of the MMV Hit Generation Library 1 (HGL1) against asexual blood stage Plasmodium falciparum ,using a nano luciferase reporter read-out” (2022).
Out of some 150,000 compounds screened, about 540 (0.36%) showed an effect of 50% or more. This is one part of the list.

tested on: Plasmodium falciparum; assay: Primary screen in NF54 nanoGlo assay, in single point, at 2uM, 72h; a lower Z score goes with more inhibition; format: functional, Erythrocyte; conditions: timepoint 72 hour

| Structure (SMILES) | % Inhibition | Z score |
| --- | --- | --- |
| Cc1ncnc(N2CCn3c(nc(C)c3C(=O)N(C)C)C2)c1C | 10% | -1.37 |
| CN1CCC(CN(CCc2ccccc2)C(=O)c2ccc(Cl)s2)CC1 | 11% | -1.83 |
| CC1(C)CN(C(=O)c2cn[nH]c(=O)c2)C(C)(C)CN1Cc1ccccc1 | 24% | -4.47 |
| Cc1ccc(C2=C[C@@H](c3ccccc3)n3nnnc3N2CC(=O)N2CCCC2)cc1 | -6% | 0.74 |
| CC1CCCCC1NC(=O)COc1ccccn1 (stereo not drawn) | -7% | 0.98 |
| CC(CC(=O)N1CCOCC1)NCC(C)c1ccsc1 (stereo not drawn) | 5% | -0.72 |
| COc1ccccc1N(CN1CCCC1=O)C(=O)c1c(F)cccc1F | 6% | -1.07 |
| c1n[nH]cc1CCn1cc(-c2ccc3c(c2)CCC3)nn1 | -4% | 0.6 |
| O=C(NC1CC(F)(F)C1)c1cn[nH]c1 | 2% | -0.21 |
| Cn1cc(C(=O)NCCc2ccccc2)nn1 | -2% | 0.35 |
| Cc1cc(C)c2ncn([C@H]3CC[C@H](N)C3)c(=O)c2c1 | -13% | 2.13 |
| COC1(CC(=O)NCc2ccc(Oc3ccccc3)cn2)CCC1 | -12% | 1.48 |
| CN(Cc1ccccc1)CC1CCN(Cc2nnc3n2CCCCC3)CC1 | 0% | -0.05 |
| Cc1cccc(NC(=O)N2CCN(c3cnn4c(C5CC5)nnc4c3)CC2)c1 | 31% | -3.5 |
| Cc1cc(N[C@@H](c2ccc(F)cc2)c2ccccc2Cl)n2ncnc2n1 | -13% | 1.69 |
| Cc1c(N2CCN(C(=O)c3ccccc3)CC2)c(=O)n(C)c(=O)n1C | -7% | 1.12 |
| O=C(CC1CCCC1)NCc1ccc([C@@H](O)c2cccs2)s1 | -24% | 3.08 |
| O=C(c1cccc(Cn2ccnn2)c1)N1CCC[C@H](N2CCCC2)CC1 | -6% | 1.06 |
| Fc1ccc2nc(N3CCO[C@H](C4CCC4)C3)oc2c1 | 6% | -0.75 |
| Cc1nc2ccc(NC(=O)c3cncnc3)cn2n1 | 0% | -0.03 |
| CCCN(CC(=O)N1CCn2cccc2[C@H]1c1cccc(F)c1)C(=O)Nc1ccccc1C | -16% | 1.45 |
| C[C@@H](C(N)=O)N1CCCn2nc(CCC(=O)NC3CC3)cc2C1 | -13% | 1.67 |
| Cc1nc(-c2csc(S(=O)(=O)N3CCC(C(=O)N4CCC(C)CC4)CC3)c2)no1 | -15% | 1.7 |
| CCc1nsc(N[C@H]2CC(=O)N(CCN(C)CCOC)C2)n1 | 4% | -0.6 |
| Cc1ccc([C@@H]2COCCN2C(=O)NCCc2c(C)nn(C)c2C)o1 | -9% | 0.95 |
| COc1ccc(-c2noc(-c3cccnc3NCc3ccco3)n2)cc1 | -5% | 0.81 |
| CCOc1cc(C(=O)OC)cc(N)c1OCC | -6% | 0.67 |

| Structure (SMILES) | % Inhibition | Z score |
| --- | --- | --- |
| CC(=O)c1ccc(S(=O)(=O)NC(=O)c2ccc(C#N)[nH]2)cc1 | -14% | 1.35 |
| O=C(Cn1nc(C2CC2)n(-c2ccccc2)c1=O)NCc1ccc2c(c1)OCO2 | 7% | -0.83 |
| CC(C)CN1CC[C@H](CNC(=O)c2cc(C(C)(C)C)nc(=O)[nH]2)C1 | -6% | 1.18 |
| Cc1c(C(=O)NC2CCCC2)c(C(F)(F)F)nn1C1CCN(C(C)C)CC1 | 2% | -0.28 |
| O=C(CN1CCN(c2ccc3c(c2)OCO3)C1=O)Nc1nc2ccccc2s1 | -12% | 2.06 |
| N[C@@H](CCC(=O)N1CCCCCCC1)c1ccccc1 | 29% | -3.32 |
| Clc1ccc(-c2nnc(C3CCC(c4ccccc4)CC3)o2)cc1 (stereo not drawn) | -2% | 0.3 |
| O=C(NC[C@H](O)c1ccc2c(c1)CCO2)Nc1ccccc1C(F)(F)F | -3% | 0.44 |
| COc1ccc(-c2cc3n(n2)CCCN(C(=O)c2cccc(C)c2)C3)cc1OC | -6% | 0.64 |
| O=C(NCC#CCOc1cccc(C(F)(F)F)c1)c1ccc(=O)[nH]n1 | -6% | 0.91 |
| CCN1CCN(C(=O)c2cc3cc(NC(=O)CC(C)(C)C)ccc3n2Cc2cccc(C)c2)CC1 | 8% | -1.06 |
| NC(=O)CNc1cccc(C(F)(F)F)c1 | -2% | 0.41 |
| CN(Cc1ccccc1)c1ncc(NS(=O)(=O)c2cccc(F)c2)cc1C(=O)O | -18% | 1.75 |
| CCN(C(=O)CN(C)S(C)(=O)=O)c1ccccc1 | 1% | -0.26 |
| CN(C)c1ccnc(CNC(=O)N[C@H]2CC23CCCCC3)c1 | -5% | 0.86 |
| O=C(Cn1ncn2c(cc3ccccc32)c1=O)N1CCN(c2ccccc2)CC1 | -15% | 1.94 |
| c1ccc2c(NC[C@H]3CCCO3)nccc2c1 | 2% | -0.34 |
| CNC(=O)c1ccc(Cl)c(NC[C@]2(c3ccc(F)cc3)CCOC2)c1 | -2% | 0.35 |
| O[C@@H](CN1CCC(n2ccnc2)CC1)c1cccc2ccccc12 | -10% | 1.31 |
| CC(=O)Nc1ccc(S(=O)(=O)NCCc2cc(F)cc3c2OCOC3)cc1 | -4% | 0.59 |
| O=C(NCc1csnn1)c1ccc(Cl)cc1 | -13% | 2.06 |
| Cc1csc(-c2cc(S(=O)(=O)NC3CCCCCCC3)c(C)n2C)n1 | -7% | 0.77 |
| Cc1ccc(C)c(NS(=O)(=O)c2ccc3c(c2)CCN3S(C)(=O)=O)c1 | -13% | 1.89 |
| CN1CCN(C[C@@H]2CN(C(=O)c3cccc(OC(F)F)c3)C[C@@H]2CO)CC1 | -3% | 0.49 |
| Cn1nncc1C1(O)CN(c2ncnc3[nH]ccc23)C1 | -3% | 0.53 |
| CN([C@H]1CC(=O)N(Cc2ccccc2)C1=O)S(=O)(=O)c1cccnc1 | -11% | 1.67 |
| CC(=O)c1cccc(NC(=O)CC2CCN(S(=O)(=O)c3ccc4c(c3)CCN4C(C)=O)CC2)c1 | 5% | -0.46 |
